From PMC12040169 (PLOS Biology, 2025)
The list shows a part of the results.

The compounds below were run on T1, C. trachomatis L2/434/Bu expressing GFP (CTL2-GFP). Conditions: total inclusion area; 28.5 h, 10 µM; inhibitor.
T1 construct: L2/434/Bu GFP intracellular growth in HeLa cells
Set-up: species or system HeLa; C. trachomatis total inclusion area by high-content imaging, normalised to DMSO
In short: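 Post-fluorescence-read fixation, DNA staining with Hoechst and high-content imaging; GFP inclusion area and number per well, and nuclei counts, used as proxies for bacterial growth and host viability.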

In order of falling “% of control remaining” value:
1. O=C(Nc1ccc(I)cc1C(=O)N1CCCCC1CCO)c1cccc2ccccc12 (centres unmarked) [CBK266212]  132.637
2. O=C(CC(NC1CCCC1)C(=O)O)Nc1ccc(F)cc1 (centres unmarked) [CBK266976]  132.107
3. CCCC/C=C/c1nccnc1NCCc1ccncc1 [CBK037370]  127.878
4. Cc1nn(CC(=O)N(C)C2CCCCC2)c(=O)c2cc3occc3n12 [CBK283653]  112.755
5. OC[C@]1(c2ccccc2)CC[C@H](N2CCCC2)CC1 [CBK016010]  111.729
6. O=C1NNC=Cc2c1cnc1nc(C(F)(F)F)nn21 [CBK288156]  110.151
7. Cc1cn(C2CC(O)C(C3N(c4ccccc4)CCN3c3ccccc3)O2)c(=O)[nH]c1=O (centres unmarked) [CBK201232]  109.108
8. CN(C)CC1COc2ccccc2CN1C(=O)Cc1ccccc1F (centres unmarked) [CBK285080]  108.605
9. Cc1cc([N+](=O)[O-])ccc1-c1ccc(C(=O)Nc2ccc(O)c(-c3nc4ccccc4s3)c2)o1 [CBK263421]  108.597
10. O=C(Nc1ccc(OCc2ccccc2F)cc1)c1ccc(-n2cnnc2)cc1 [CBK285816]  107.261
11. O=S(=O)(Nc1ccc(C(O)(C(F)(F)F)C(F)(F)F)cc1)c1csc2ccccc12 [CBK062098]  106.511
12. Cc1cc(OCC(=O)Nc2ccccc2CO)cc(C)c1Br [CBK265094]  106.42
13. Cc1nnc(SCc2ccc(CSc3nnc(C)n3N)cc2)n1N [CBK265561]  106.201
14. Cc1ccc(S(=O)(=O)N2CCC(C(=O)NC(c3ccccc3C)c3ncccc3C)CC2)cc1 (centres unmarked) [CBK060249]  105.698
15. CCc1nc2ccc(C(=O)Nc3ccc(OC)c(OC)c3)cn2c1N(CC)C(=O)NCCc1ccccc1 [CBK147035]  104.392
16. O=C(NCCCN1CCOCC1)c1cc2cc([N+](=O)[O-])ccc2oc1=O [CBK263441]  104.364
17. O=C(Cn1ccc([N+](=O)[O-])n1)NCc1ccco1 [CBK268999]  104.305
18. CS(=O)(=O)N1CC2(CCNCC2)c2ccccc21 [CBK005171]  103.209
19. O=S(=O)(Nc1cccc2cccnc12)c1cccs1 [CBK043904]  102.671
20. Cc1nc2c(c(=O)[nH]1)CCN(Cc1c(C)oc3ccccc13)C2 [CBK283994]  102.159
21. O=C(c1ccc(-c2nccnc2NCC2CC2)cc1)N1CCOCC1 [CBK036814]  101.535
22. O=C1CC(C(=O)c2ccccc2)NC(N2CCOCC2)=N1 (centres unmarked) [CBK267352]  101.384
23. CCn1cc(-c2cncn2C(CCN(C)C)c2ccccc2)cn1 (centres unmarked) [CBK281741]  100.916
24. Cc1cccc(C(=O)NC(=S)Nc2cccc(C(=O)O)c2)c1 [CBK264987]  100.723
25. O=C(CCn1c(C(F)(F)F)cc2cccnc21)NCc1ccncc1 [CBK284841]  100.607
26. O=C(O)c1ccc(/C=N/c2ccc(S(=O)(=O)c3ccc(/N=C/c4ccc(C(=O)O)cc4)cc3)cc2)cc1 [CBK262038]  99.8748
27. O=C1C=C(N2CCC(CCC3CCN(C4=CC(=O)CCC4)CC3)CC2)CCC1 [CBK007126]  99.5083
28. CC(C)(C)NS(=O)(=O)c1ccc(CCC(=O)Nc2ccc(F)c(Cl)c2)cc1 [CBK266974]  99.419
29. CCOc1ccc(-c2nc(CSc3n[nH]c(=O)n3CCc3ccccc3)cs2)cc1 [CBK296735]  99.2154
30. Cc1ccccc1NS(=O)(=O)c1cc(OCC(N)=O)c(C)cc1Cl [CBK266443]  98.1199
31. O=C1COc2ccccc2C/C=C/CC2(CCN(C(=O)c3n[nH]c4ccccc34)CC2)CN1 [CBK292021]  97.7744
32. CNc1nc(Cn2ncc(N3CCCN(C)CC3)cc2=O)cs1 [CBK307446]  96.053
33. COc1ccc2nc(-c3cccc(NC(=O)c4ccc(F)cc4)c3)cn2n1 [CBK287826]  95.588
34. COC(=O)c1ccc(NC(=O)CN2CCC(C(N)=O)(N3CCCCC3)CC2)cc1 [CBK268275]  95.4466
35. COc1ccc(N2C(=O)c3ccc(C(=O)OCC(=O)c4ccccc4Cl)cc3C2=O)c([N+](=O)[O-])c1 [CBK265514]  94.9921
36. CC(C)C(=O)Nc1cc2cccnc2nc1-c1cccc(C(F)(F)F)c1 [CBK073657]  94.4715
37. Cc1cc(OCC(=O)Nc2nn(Cc3ccccc3Cl)cc2Cl)ccc1[N+](=O)[O-] [CBK268113]  94.316
38. CC1CC(C)CN(C(=O)Cn2c(=O)n(C)c3ncccc32)C1 (centres unmarked) [CBK283794]  94.1792
39. O=C(CSc1nnc(-c2ccncc2)o1)Nc1ccccc1 [CBK287586]  93.5314
40. COC(=O)c1cc(NS(=O)(=O)c2cc(Cl)ccc2Cl)cc(C(=O)OC)c1 [CBK077853]  92.6021
41. COc1cc2c(c(OC)c1OC)CC(=O)NC21CCN(C(=O)CC(C)CC(=O)O)CC1 (centres unmarked) [CBK047265]  91.7589
42. CSc1ncc(Cl)c(C(=O)Nc2sc3c(c2C(=O)NC2CCS(=O)(=O)C2)CCC(C)C3)n1 (centres unmarked) [CBK268886]  91.412
43. CCN1C(=O)c2[nH]nc(-c3ccccc3O)c2C1c1cccc(O)c1 (centres unmarked) [CBK288159]  91.1942
44. COc1ccc(C(=O)n2nc(SC)nc2N)cc1 [CBK006853]  90.8978
45. CCOC(=O)c1[nH]c2ccccc2c1NC(=O)c1ccc(Br)cc1Cl [CBK160147]  90.5747
46. Cc1cccnc1NC(=O)c1c(O)c2ccccc2n(C)c1=O [CBK261431]  89.6284
47. O=C(Nc1cccc(Cl)c1)c1cc2cc(O)ccc2cc1O [CBK016894]  89.5497
48. Cc1cc(CN(C)Cc2cnn(Cc3ccccc3)c2C)n[nH]1 [CBK283017]  88.6973
49. N#CCCCN1CCC(Oc2nccnc2OCc2cccnc2)CC1 [CBK083171]  87.1613
50. Cc1cc(C)n(CCCC(=O)N2CC3(CCNCC3)CC2C(=O)O)n1 (centres unmarked) [CBK307174]  86.4265
51. CNC(=S)N/N=C/c1c(C)cccc1Cl [CBK021253]  85.5861
52. O=C(O)CSc1nc2ccccc2n1Cc1ccccc1 [CBK262411]  85.4407
53. CCCc1[nH]nc(O)c1Cc1cc(F)ccc1Br [CBK075031]  85.2336
54. CNC(=S)N1CCN(c2nccnc2NS(=O)(=O)Cc2ccccc2)CC1 [CBK049044]  85.0731
55. O=[N+]([O-])c1ccc(CN2CCC(Oc3cncc(OCc4ccc(Cl)c(Cl)c4)n3)C2)cc1 (centres unmarked) [CBK084426]  84.6766
56. Cc1nc(N)nc(NCC(O)CN(C)C)c1Cl (centres unmarked) [CBK306963]  83.3885
57. C(CSC1=NCCN1)CSC1=NCCN1 [CBK278217B]  83.0373
58. CCc1cc(Br)ccc1S(=O)(=O)NCCCC(=O)OC [CBK044788]  81.3879
59. Cc1ccc(S(N)(=O)=O)cc1NC(=O)c1ccc[nH]1 [CBK050200]  80.3857
60. CCN(CC)C(=O)Cn1nc(C)n2c(cc3occc32)c1=O [CBK283620]  77.7128
61. c1ccc(Cc2csc(C3CN4CCCC4CO3)n2)cc1 (centres unmarked) [CBK304202]  77.654
62. O=C(NC1CCCN(c2ncccn2)C1)c1ccc(-c2ccc(F)cc2)s1 (centres unmarked) [CBK298337]  76.9366
63. Cc1cc(N2CCOCC2)c2c(N)c(Br)cc(C)c2n1 [CBK066880]  75.9556
64. O=C(O)CCNC(=O)/C(=C/c1ccc(Cl)cc1)NC(=O)c1ccccc1 [CBK300484]  75.3724
65. CCN(CC)C(=O)CN1CCC(c2ccc(OC)cc2)CC1 [CBK283559]  74.0583
66. COc1cc(CNc2ccc(N3CCCCC3)cc2)ccc1OCc1ccccc1F [CBK074472]  73.4427
67. CCCC1CN(C)c2ccccc2C1=O (centres unmarked) [CBK023527]  72.5838
68. CN1CCC(Cc2nc(-c3ccc(Cl)s3)n(CCO)n2)CC1 [CBK307025]  69.7028
69. Cc1ccc(CN(CCCn2ccnc2)Cc2ccsc2)o1 [CBK283253]  68.4037
70. COc1ccc(CCC(C)N2CCN(c3ccc(F)cc3)CC2)cc1 (centres unmarked) [CBK261922]  66.5938
71. O=C(NCCOc1ccccc1Cl)NC(=O)C1CCN(CCOc2ccc(Br)cc2)CC1 [CBK034897]  63.4333
72. COc1ccc(C)cc1S(=O)(=O)Nc1ccc(O[C@@H]2CCNC2)c2ccccc12 [CBK051622C]  59.1908
73. COCCn1c(-c2ccc(CN3CCCC3)cc2)cc2onc(C)c2c1=O [CBK050385C]  56.3755
74. COc1ccc(CN2CCOC(C(=O)O)C2)cc1Cn1cncn1 (centres unmarked) [CBK306919]  56.234
75. COc1ccc(CCC(=O)NCC(c2cccs2)N2CCOCC2)cc1 (centres unmarked) [CBK304674]  56.0479
76. COC1CCN(C2CCc3c(Cl)cc(Cl)cc32)CC1 (centres unmarked) [CBK304883]  48.2989
77. CCN(CC)C(=O)c1[nH]c2ccccc2c1NS(=O)(=O)c1ccc(F)cc1 [CBK050105]  45.6374
78. COc1ccc(-c2ccc3c(c2)COC2(CCCNC2)O3)c(OC)c1 (centres unmarked) [CBK105316]  45.0823
79. CNC(=O)C1CCCN1C(=O)c1nnn(Cc2ccc(F)cc2F)c1C (centres unmarked) [CBK306496]  44.7534
80. CC(NC(=O)N(Cc1c[nH]c(-c2ccccc2)n1)CC(C)(C)CN)c1cccc2ccccc12 (centres unmarked) [CBK026801C]  27.5834
